The other results are listed elsewhere or left out.
T1: UNK ZnF1-6 (called full-length) (human, UniProt Q9C0B0 30-357)
T1 sequence: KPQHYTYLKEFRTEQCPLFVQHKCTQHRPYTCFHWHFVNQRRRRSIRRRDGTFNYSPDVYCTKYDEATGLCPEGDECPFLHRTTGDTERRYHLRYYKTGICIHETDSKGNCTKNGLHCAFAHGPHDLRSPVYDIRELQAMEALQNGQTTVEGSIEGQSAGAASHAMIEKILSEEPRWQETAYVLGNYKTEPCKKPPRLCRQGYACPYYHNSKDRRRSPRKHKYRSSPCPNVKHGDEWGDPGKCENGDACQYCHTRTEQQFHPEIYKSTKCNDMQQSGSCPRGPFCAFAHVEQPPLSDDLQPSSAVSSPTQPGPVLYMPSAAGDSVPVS

B1: chr9:33053202:33053303:-|CDS|ENSG00000122692|msi1|total|mutant (ssRNA)
RNA: GGGAGUUCUACAGUCCGACGAUCCCUAAAACUUCCGAAAUUUUUAUACCUAAAAAAGGUUUAUAACUUAAAUUUCUGUGUGGCCGAUCUGGAAUAUGAAGACCACAGAAUGUUCAAAUACCUUUAAAUCCCUGGGCAGCACCGCAACAGAGGAUUGAGCAUCA
B2: ENSG00000136451:be:win_3451|3pUTR|ENSG00000136451|bound_else_gene|NA|bound_elsewhere_windowed (ssRNA)
RNA: GGGAGUUCUACAGUCCGACGAUCCAAAAUGUAGAGAAAAAUAUGUAGCUAUGACUUUGUUACAACUGUUCUUAUCCACAGUACAAAAAUGGUUUGUUUUUAAUAUGUAGAGCAUUAUGUGUGGACUACUGGAAGGACUCGUGUCAACAGAGGAUUGAGCAUCA
B3: chr7:44064065:44064166:+|3pUTR|ENSG00000136279|msi1|FALSE|unique (ssRNA)
RNA: GGGAGUUCUACAGUCCGACGAUCGCACACCCUUCUAGCCUUUCCAGGACUCAACAAGCUUUAAGGUCAUUCAGAUGCUAAUUUAGACUGCCCUUGUGUCAGAAUACUAAGGUGGGAGGCGGAGCGGAGGUGCCAGUCACUCUGCAACAGAGGAUUGAGCAUCA
B4: chr15:49876277:49876523:-|three_prime_utr|ENSG00000104043|control|control|control (ssRNA)
RNA: GGGAGUUCUACAGUCCGACGAUCUCUGCUUUUUAACAAGCGUAAAUUUUUCAUUUGCGUGUUGCAUGGAAUCUACACCUCAUUAGUCCUUUUCUUCAUCCCCUAUGGGGCCUUUUACAACGUGGCUGGAGAAGAUGGGCAACACAACAGAGGAUUGAGCAUCA
B5: ENSG00000107863:be:win_2551|CDS|ENSG00000107863|bound_else_gene|NA|bound_elsewhere_windowed (ssRNA)
RNA: GGGAGUUCUACAGUCCGACGAUCUUAAUUCGCCGUCAGCUCUCACAUGACCACGAAUCUGUUGGCCCUCCUAGCCUGGAUGCUCAGCCCAACUCAAAGACAGAAAGAUCAAAAUCAUAUGAUGAGGGUCUGGAUGAUUACAGACAACAGAGGAUUGAGCAUCA
B6: chr2:27781378:27781788:-|three_prime_utr|ENSG00000171174|control|control|control (ssRNA)
RNA: GGGAGUUCUACAGUCCGACGAUCAACACAGUCAUCUUACCCUUACAAAAAAGACCUUCCGCUUACUCUGUUUUGAUUGCUAUUAGUCCCAAAAUAAAUAUACCUGGGAAUAAAAUGUACUUGGGGGUGGCUGCUCCUGGCUAACAACAGAGGAUUGAGCAUCA
B7: chr12:133204733:133204837:+|3pUTR|ENSG00000090612|unk|total|mutant (ssRNA)
RNA: GGGAGUUCUACAGUCCGACGAUCCAAAAAGACCGCCGACAAUACACAGGAAAACUGAAUUCCGUAACCACUCUGAAAAUUUUCCGCAGCAAGUCAUACCUUUUUUUAAAAAGUUCAUACAGGUGAGGAACCAUGUUAAACGUUCAACAGAGGAUUGAGCAUCA
B8: ENSG00000107863:be:win_6251|3pUTR|ENSG00000107863|bound_else_gene|NA|bound_elsewhere_windowed (ssRNA)
RNA: GGGAGUUCUACAGUCCGACGAUCUAUUGUUAAAAUUAGAUAACUUACUUACAUUGAAUAAACGAAUGCGUUUUAUUGGUAACAGAUAUCAUUACAUUUACCAGUUUUAACACAGGUGGAUACAGAACUUCCAUUCUUUAGUCACAACAGAGGAUUGAGCAUCA
B9: chr5:24509697:24509799:-|CDS|ENSG00000040731|unk|total|mutant (ssRNA)
RNA: GGGAGUUCUACAGUCCGACGAUCACUCGACUAUGAGAGCCGAAGACUUUAUACUCUGAAAGUCGAAGCAGAAAACACCCAUGCCGAUCCCCGUUUUUAUUACCCCGGACCAUUUAAAGAUACUACCACCGUGAAAAUCUCUAUCAACAGAGGAUUGAGCAUCA
B10: chr1:180885099:180885158:+|3pUTR|ENSG00000143324|msi1_unk|total|mutant (ssRNA)
RNA: GGGAGUUCUACAGUCCGACGAUCAGCUGAAGCUAUGCCUUAUUAUGCAUCCACAUGUAUGGUCCCUGCCGCGUGACCUUUACCCGCUCUGAAUCAGAAGACAGAGCUAUUUCAGAGGCUCUGUGUGCCCUCACCCGACCGUUUCAACAGAGGAUUGAGCAUCA
B11: chr19:45224777:45224913:-|CDS|ENSG00000283632|control|control|control (ssRNA)
RNA: GGGAGUUCUACAGUCCGACGAUCGCCGAGCGCCUGGCCCGGGUGGGGCCCCCAGAAAGCGAGCCGGCCCGGGAAGCAUCUGCUAGUGCUCUGGACCAUGUGACCCGGCUCUGCCACCGUGUCGUGGCCAACCUGCUGUUCCAGCAACAGAGGAUUGAGCAUCA
B12: chr14:70725571:70725672:-|3pUTR|ENSG00000006432|unk|total|mutant (ssRNA)
RNA: GGGAGUUCUACAGUCCGACGAUCUAUUGUCCGAAACGCAUUACCAAAUGCAUCUCUUCUGUCGGAUCAGCGUAUUCCCCGAUCCGGAAUUCAAAUUAAUGAAAAUUCACAUAUGAAAGGAAAAUCCAUUGCUAUUUCUGGAGACAACAGAGGAUUGAGCAUCA
B13: chr12:56416428:56416529:-|3pUTR|ENSG00000111602|msi1|FALSE|unique (ssRNA)
RNA: GGGAGUUCUACAGUCCGACGAUCAUGUUCUUACCCAUUCUUGGAAACGUCAGCUUUCUUGCUUCCUGUGCUUCCAGCCGAGGUAGGGCAAAGGUGAGAUUGAGAAAAUAGCCAUUCAGCUCAGGAAGGCUUCUAAGUAAAGGACAACAGAGGAUUGAGCAUCA
B14: ENSG00000124766:be:win_2351|3pUTR|ENSG00000124766|bound_else_gene|NA|bound_elsewhere_windowed (ssRNA)
RNA: GGGAGUUCUACAGUCCGACGAUCCAGACCCCGGAGGCGUGGAGGAGAGGAGACUGUUUGAUGUGGUACAGGGGCAGUCAGUGGAGGGCGAGUGGUUUCGGAAAAAAAAAAAGAAAAAAAGAAAAAAAAAGAAAAAAAAAAGAUCAACAGAGGAUUGAGCAUCA

biological target: T1, UNK ZnF1-6 (called full-length); test: nsRBNS (natural sequence RNA bind-n-seq); RBNS binding buffer (assumed for nsRBNS): 25 mM Tris pH 7.5, 150 mM KCl, 3 mM MgCl2, 0.01% Triton X-100, 500 ug/ml BSA, 20 U/ml SUPERase-In, 4 C; UNK is unkempt and MSI1 is Musashi-1; names of the RNAs are library labels; protein concentration not given here; high values mean tight binding

Row | Binder | binding signal [enrichment R]
1 | B1 | 0.514
2 | B2 | 0.668
3 | B3 | 0.816
4 | B4 | 1.06
5 | B5 | 0.436
6 | B6 | 0.934
7 | B7 | 0.289
8 | B8 | 1.8
9 | B9 | 0.449
10 | B10 | 0.559
11 | B11 | 1.06
12 | B12 | 0.223
13 | B13 | 0.587
14 | B14 | 1.36

From article PMC12136788
